We go through 14 molecules from ChEMBL document CHEMBL1961873, “Compounds: GSK PKIS; Assays: Nanosyn kinase panel” (2012).

For assay [1], the target named is Death-associated protein kinase 1 (Homo sapiens) (UniProt P53355). As to conditions: at 1 µM.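 Note: each value is a mean inhibition figure.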
Assay [2] concerns the target T1, Serine/threonine-protein kinase DCLK2 (Homo sapiens) (UniProt Q8N568).
T1 sequence (whole entry): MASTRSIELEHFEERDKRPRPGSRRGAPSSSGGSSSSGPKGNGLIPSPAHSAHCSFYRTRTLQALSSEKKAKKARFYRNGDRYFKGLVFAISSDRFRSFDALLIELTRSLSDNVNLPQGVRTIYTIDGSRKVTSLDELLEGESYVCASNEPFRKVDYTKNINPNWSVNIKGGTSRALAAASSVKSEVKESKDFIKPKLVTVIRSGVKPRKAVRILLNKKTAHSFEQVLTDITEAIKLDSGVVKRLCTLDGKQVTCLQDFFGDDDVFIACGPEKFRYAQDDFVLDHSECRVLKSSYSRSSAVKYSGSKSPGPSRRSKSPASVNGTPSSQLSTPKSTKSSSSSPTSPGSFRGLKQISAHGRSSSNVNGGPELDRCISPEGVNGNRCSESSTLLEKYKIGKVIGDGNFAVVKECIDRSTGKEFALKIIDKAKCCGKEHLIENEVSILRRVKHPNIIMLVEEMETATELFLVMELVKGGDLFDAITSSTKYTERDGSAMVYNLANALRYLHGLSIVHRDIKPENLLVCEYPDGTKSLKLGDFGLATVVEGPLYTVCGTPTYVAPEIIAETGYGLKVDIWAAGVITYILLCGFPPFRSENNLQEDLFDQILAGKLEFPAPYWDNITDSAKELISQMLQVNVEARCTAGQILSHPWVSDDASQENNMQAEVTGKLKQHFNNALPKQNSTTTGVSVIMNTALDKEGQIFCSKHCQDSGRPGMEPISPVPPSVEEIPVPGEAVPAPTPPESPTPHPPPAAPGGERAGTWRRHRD
As to conditions: at 0.1 µM.

Assay [3] has as its target T1, Serine/threonine-protein kinase DCLK2 (Homo sapiens). As to conditions: at 1 µM.
The target in assay [4] is MAP kinase-activated protein kinase 2 (Homo sapiens) (UniProt P49137). The settings on record: at 0.1 µM.
For assay [5] the target is unchanged. As to conditions: at 1 µM.
The target of assay [6] is MAP kinase-activated protein kinase 3 (Homo sapiens) (UniProt Q16644). As to conditions: at 0.1 µM.
For assay [7] the target is unchanged. As to conditions: at 1 µM.
The target of assay [8] is Serine/threonine-protein kinase MARK1 (Homo sapiens) (UniProt Q9P0L2). The settings on record: at 0.1 µM.
Assay [9] shares this target. As to conditions: at 1 µM.
Assay [10] concerns the target MAP/microtubule affinity-regulating kinase 3 (Homo sapiens) (UniProt P27448). The settings on record: at 0.1 µM.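 Note: mean percent inhibition of MARK3 kinase activity, measured within the GSK PKIS screening panel.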

For some of these results: Most of the strong results are listed elsewhere, so they are rarer here than in the full data. This is a selection; strong and weak results do not stand in their true shares.

UniProt P27448, sequence (P27448 whole entry, looked up): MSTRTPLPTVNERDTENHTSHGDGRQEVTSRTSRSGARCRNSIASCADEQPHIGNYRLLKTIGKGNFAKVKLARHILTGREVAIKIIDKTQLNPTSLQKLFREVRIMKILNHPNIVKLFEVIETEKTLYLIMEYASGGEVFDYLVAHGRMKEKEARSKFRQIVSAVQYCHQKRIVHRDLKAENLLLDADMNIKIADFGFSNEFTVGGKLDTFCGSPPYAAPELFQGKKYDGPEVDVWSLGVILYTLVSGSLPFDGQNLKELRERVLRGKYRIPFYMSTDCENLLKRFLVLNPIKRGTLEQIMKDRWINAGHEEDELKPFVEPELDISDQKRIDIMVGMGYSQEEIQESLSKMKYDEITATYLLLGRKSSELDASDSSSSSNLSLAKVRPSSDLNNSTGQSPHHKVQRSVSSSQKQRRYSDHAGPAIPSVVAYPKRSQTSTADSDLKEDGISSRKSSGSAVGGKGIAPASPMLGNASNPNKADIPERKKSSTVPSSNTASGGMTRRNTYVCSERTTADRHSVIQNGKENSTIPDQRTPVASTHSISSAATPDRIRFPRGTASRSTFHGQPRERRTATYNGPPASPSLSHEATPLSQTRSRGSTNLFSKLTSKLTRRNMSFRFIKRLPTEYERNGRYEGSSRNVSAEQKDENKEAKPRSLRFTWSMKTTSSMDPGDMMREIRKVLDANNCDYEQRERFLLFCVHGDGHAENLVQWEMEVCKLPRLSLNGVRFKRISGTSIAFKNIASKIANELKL
UniProt P49137, sequence (P49137 whole entry, looked up): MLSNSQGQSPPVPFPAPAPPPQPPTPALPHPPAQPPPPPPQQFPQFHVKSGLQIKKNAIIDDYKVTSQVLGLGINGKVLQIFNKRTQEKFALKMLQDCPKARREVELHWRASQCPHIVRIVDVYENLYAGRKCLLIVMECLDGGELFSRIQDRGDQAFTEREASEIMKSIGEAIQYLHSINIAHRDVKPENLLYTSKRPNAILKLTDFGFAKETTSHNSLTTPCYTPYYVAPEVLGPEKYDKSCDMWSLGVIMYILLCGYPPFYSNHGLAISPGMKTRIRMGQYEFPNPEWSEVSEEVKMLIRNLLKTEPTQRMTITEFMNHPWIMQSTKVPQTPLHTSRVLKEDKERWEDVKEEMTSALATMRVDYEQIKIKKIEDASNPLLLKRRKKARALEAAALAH
UniProt P53355, sequence (P53355 whole entry, looked up): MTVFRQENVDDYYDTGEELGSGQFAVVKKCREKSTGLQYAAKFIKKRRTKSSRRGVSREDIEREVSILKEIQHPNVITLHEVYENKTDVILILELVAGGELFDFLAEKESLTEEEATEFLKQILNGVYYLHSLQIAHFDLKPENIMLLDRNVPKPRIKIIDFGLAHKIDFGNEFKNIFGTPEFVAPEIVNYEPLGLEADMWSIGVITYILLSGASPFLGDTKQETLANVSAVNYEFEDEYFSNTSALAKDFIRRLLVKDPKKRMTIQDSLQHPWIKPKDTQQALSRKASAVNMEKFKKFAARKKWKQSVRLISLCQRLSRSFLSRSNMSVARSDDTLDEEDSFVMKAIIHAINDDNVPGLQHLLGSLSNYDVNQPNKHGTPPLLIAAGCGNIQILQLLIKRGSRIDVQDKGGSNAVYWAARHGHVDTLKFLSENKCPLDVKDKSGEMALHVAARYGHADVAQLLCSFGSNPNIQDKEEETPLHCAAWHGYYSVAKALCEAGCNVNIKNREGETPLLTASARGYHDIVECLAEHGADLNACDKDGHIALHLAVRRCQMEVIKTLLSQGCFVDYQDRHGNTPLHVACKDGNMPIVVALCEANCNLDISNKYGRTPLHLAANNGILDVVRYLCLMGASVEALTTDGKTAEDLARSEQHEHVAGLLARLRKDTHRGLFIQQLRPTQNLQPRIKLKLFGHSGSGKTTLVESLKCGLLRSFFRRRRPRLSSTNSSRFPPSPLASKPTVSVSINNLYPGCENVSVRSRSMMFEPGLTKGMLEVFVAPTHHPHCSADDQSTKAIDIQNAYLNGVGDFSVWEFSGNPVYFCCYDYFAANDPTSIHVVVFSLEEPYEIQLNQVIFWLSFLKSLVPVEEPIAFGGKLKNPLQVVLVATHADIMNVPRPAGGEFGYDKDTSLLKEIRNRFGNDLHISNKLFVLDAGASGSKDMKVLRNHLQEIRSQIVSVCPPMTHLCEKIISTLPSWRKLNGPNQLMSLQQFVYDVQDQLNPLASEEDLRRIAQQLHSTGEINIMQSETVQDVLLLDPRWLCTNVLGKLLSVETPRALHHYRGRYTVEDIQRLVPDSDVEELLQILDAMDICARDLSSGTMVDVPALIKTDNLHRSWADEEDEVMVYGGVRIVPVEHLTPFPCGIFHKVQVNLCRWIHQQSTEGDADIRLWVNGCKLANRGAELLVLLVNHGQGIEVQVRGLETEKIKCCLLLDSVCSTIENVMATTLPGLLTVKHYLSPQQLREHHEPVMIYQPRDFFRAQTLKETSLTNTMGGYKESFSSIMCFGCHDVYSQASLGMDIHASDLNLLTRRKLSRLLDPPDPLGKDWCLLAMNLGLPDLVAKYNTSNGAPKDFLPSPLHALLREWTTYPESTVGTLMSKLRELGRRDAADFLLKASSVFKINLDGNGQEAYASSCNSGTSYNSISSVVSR
UniProt Q9P0L2, sequence (Q9P0L2 whole entry, looked up): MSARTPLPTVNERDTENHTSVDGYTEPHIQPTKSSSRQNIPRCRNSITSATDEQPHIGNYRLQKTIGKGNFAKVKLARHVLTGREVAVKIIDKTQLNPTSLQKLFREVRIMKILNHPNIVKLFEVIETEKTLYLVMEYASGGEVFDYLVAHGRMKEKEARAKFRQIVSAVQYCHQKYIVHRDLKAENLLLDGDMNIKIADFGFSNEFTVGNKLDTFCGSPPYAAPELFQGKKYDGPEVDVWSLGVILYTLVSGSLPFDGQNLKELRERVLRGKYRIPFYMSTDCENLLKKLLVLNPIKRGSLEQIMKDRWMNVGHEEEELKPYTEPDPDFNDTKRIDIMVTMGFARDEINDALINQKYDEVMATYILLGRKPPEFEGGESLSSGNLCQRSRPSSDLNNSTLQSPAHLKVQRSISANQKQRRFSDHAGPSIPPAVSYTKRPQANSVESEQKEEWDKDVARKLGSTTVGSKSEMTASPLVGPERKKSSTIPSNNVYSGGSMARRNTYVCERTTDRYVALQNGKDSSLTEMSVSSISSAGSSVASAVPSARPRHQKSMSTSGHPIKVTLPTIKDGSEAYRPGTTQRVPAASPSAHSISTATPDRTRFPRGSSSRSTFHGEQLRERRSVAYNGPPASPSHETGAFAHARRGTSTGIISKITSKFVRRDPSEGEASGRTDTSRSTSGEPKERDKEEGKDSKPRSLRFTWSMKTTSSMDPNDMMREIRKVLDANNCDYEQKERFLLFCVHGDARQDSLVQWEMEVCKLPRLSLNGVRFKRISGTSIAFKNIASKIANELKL
UniProt Q16644, sequence (Q16644 whole entry, looked up): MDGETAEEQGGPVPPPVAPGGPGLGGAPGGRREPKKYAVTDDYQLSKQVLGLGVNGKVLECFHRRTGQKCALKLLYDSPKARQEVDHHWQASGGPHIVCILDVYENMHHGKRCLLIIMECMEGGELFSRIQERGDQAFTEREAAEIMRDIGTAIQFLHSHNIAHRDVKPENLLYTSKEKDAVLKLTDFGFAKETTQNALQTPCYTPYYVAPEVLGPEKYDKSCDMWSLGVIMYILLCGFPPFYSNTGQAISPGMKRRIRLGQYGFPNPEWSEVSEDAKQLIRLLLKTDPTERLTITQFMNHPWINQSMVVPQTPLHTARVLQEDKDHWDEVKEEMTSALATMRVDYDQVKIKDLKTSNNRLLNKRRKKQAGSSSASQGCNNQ

Regarding `Cc1cccc(Oc2nccc(-c3c(-c4ccc(F)cc4)ncn3C3CCNCC3)n2)c1C`, the inhibition in [1] is 11.5%; in assay [2], -1.03%; in assay [3] it was 2.47%; in assay [4], 5.06%; in [5], 4.26%; in assay [6] it was 41.4%. The inhibition came out at 46.3% in [7], 3.59% in [8], 4.89% in assay [9] and 4.26% in assay [10].

With `Fc1ccc(-c2ncn(C3CCNCC3)c2-c2ccnc(Oc3cccc(F)c3)n2)cc1`, the inhibition is -5.12% in [1]; 0.92% in assay [2]; 1.85% in assay [3]; -0.26% in [4]; 0.16% in [5]; 22.8% in assay [6]. Also, the inhibition in assay [7] was 28.5%; in assay [8], 2.03%; in [9], 4.83%; in assay [10], 2.73%.

As to `COc1ccccc1C1=C(Nc2ccccc2)C(=O)NC1=O`, the inhibition was -4.37% in assay [1]; -0.44% in [2]; 3.12% in assay [3]; -1.03% in [4]; -1.51% in assay [5]; -1.88% in assay [6]. For the same molecule, the inhibition is 0.18% in assay [7], 3.1% in assay [8], 15.2% in assay [9] and 6.52% in assay [10].

With `COc1ccccc1Oc1nccc(-c2c(-c3ccc(F)cc3)ncn2C2CCNCC2)n1`, the inhibition in [1] is -5.02%; in assay [2] it was 1.98%; in [3] it was 1.2%; in assay [4], -0.91%; in [5] it was -1.38%; in [6] it was 29.7%. Further, the inhibition in assay [7] worked out at 30.9%; in assay [10], 1.99%.

As to `CS(=O)(=O)c1ccc(Oc2nccc(-c3c(-c4ccc(F)cc4)ncn3C3CCNCC3)n2)cc1`, the inhibition in assay [1] was -0.74%; in assay [2], 4.13%; in assay [3], 1.66%; in assay [4] it was 2.08%; in assay [5] it was 0.58%; in assay [6], 11.4%. In addition, the inhibition in [7] came out at 27.6%; in assay [8], 1.44%; in [9] it was 1.65%; in assay [10] it was 1.71%.

As for `Fc1ccc(-c2ncn(C3CCNCC3)c2-c2ccnc(Oc3ccc(Cl)cc3)n2)cc1`, the inhibition in [2] was 0.53%; in assay [3], 0.56%; in assay [4] it was -3.24%; in [5], -3.38%; in [6], 21.7%; in assay [7], 30%. In addition, the figures for the inhibition in [8], in [9] and in [10] were 1.08%, 2.02% and 0.86%, respectively.

For the molecule `O=C1NC(=O)C(c2ccccc2Cl)=C1Nc1cc(Cl)c(O)c(Cl)c1`, the inhibition in assay [1] was 4.61%; in assay [2], 0.87%; in [3], -0.88%; in assay [4] it was 1.89%; in assay [5], 2.62%; in assay [6] it was 1.73%. For the same molecule, the inhibition in assay [7] was 4.25%; in assay [8] it was 2.18%; in [9], 4.62%; in assay [10] it was -0.68%.

With `CC(C)(C)c1ccc(Oc2nccc(-c3c(-c4ccc(F)cc4)ncn3C3CCNCC3)n2)cc1`, the inhibition in assay [1] is -2.5%; in assay [2] it was 0.28%; in [3] it was 1.27%; in assay [4] it was 1.56%; in assay [5], 0.83%; in assay [6], 33.8%. In addition, the inhibition in assay [7] was found to be 36.2%; in [8] it was 1.44%; in [9], 5.2%; in assay [10], 0.67%.

With `Fc1ccc(Oc2nccc(-c3c(-c4ccc(F)cc4)ncn3C3CCNCC3)n2)cc1`, the inhibition was 3.27% in assay [1]; -3.47% in assay [2]; -0.14% in assay [3]; 1.74% in [4]; 4.04% in assay [5]; 23.1% in [6]. The inhibition in [7] is 36%; in assay [8] it was 1.42%; in assay [9] it was 1.49%; in assay [10], 1.87%.

For the molecule `O=C1NC(=O)C(c2cccc([N+](=O)[O-])c2)=C1Nc1cc(Cl)c(O)c(Cl)c1`, the inhibition in [1] was 1.81%; in assay [2], -0.59%; in [3], 1.71%; in assay [4], 0.37%; in assay [5], 0.31%; in assay [6] it was 1.45%. Besides, the inhibition in assay [7] was 1.9%; in assay [8], 1.11%; in assay [9], 6.27%; in assay [10], -0.59%.

As to `NC(=O)CCc1ccccc1Oc1nccc(-c2c(-c3ccc(F)cc3)ncn2C2CCNCC2)n1`, the inhibition in assay [1] is 1.27%; in assay [2] it was -1.23%; in assay [3], -2.17%; in [4], -2.03%; in assay [5], -1.25%; in assay [6], 23.2%. The inhibition in assay [7] is 34%; in assay [8] it was 1.38%; in assay [9] it was 0.03%; in assay [10], -0.53%.

For the molecule `O=C(O)c1ccc(Oc2nccc(-c3c(-c4ccc(F)cc4)ncn3C3CCNCC3)n2)cc1`, the inhibition in assay [1] turned out to be 7.15%; in [2], 0.12%; in assay [3], 2.05%; in assay [4], 3.56%; in assay [5], 5.11%; in [6], 13.3%. Further, the inhibition in assay [8] was determined as 1.28%; in assay [9], 3.37%; in assay [10], 1.78%.

`O=C1NC(=O)C(c2ccccc2)=C1Nc1ccccc1`: the inhibition in assay [1] is -2.71%; in assay [2], 0.98%; in [3] it was 0.16%; in assay [4], 0.27%; in assay [5] it was 0.09%; in [6], 0.14%. The inhibition in assay [7] is -0.05%; in assay [8], 4.41%; in assay [9], 9.02%; in [10], 2.73%.

As for `Fc1ccc(-c2ncn(C3CCNCC3)c2-c2ccnc(Oc3cccc(C(F)(F)F)c3)n2)cc1`, the inhibition in [1] worked out at 7.45%; in assay [2], 0.49%; in [3], 3.67%; in [4], 1.76%; in assay [5], 1.85%; in assay [6] it was 14.7%. For the same molecule, the inhibition worked out at 28.9% in [7], 3.6% in [8], 3.58% in assay [9] and 3.1% in assay [10].

The inhibition is the change of the read-out against control, counted positive when it falls.
